# Measured values as given in the supplement of paper PMC11417369.
# This is one part of the list.
# Test system: PfAP2-HC AP2 domain (GST-tagged)
# Test: gcPBM binding intensity (ln(normalized median fluorescence intensity)); higher = stronger DNA binding
# How it was run: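 GST-fused DNA-binding domains of P. falciparum, expressed in E. coli, were applied at about 25 μg on average for 1 h to an Agilent 4 × 180k array of primer-extended double-stranded 36-bp intergenic genomic probes and negative controls. Binding intensity is the highest Masliner-normalised natural-log median intensity across replicate spots of either probe orientation, measured with Alexa488 anti-GST antibody and a 488 nm scan.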
row,Sequence,gcPBM binding intensity (ln)
1,TTATAATATATATACAGTACATATATAAAATAATAT [XGTACX_site5917],9.58
2,TTTTCTTGGTTCAGTGTGCACTTATATATATATATA,10
3,TAATATAAAGAAAAGGAACACACAAATATATATATA [CACACA_site8049],9.83
4,TTATTTTATAATAAAAGTACACAAAAAAAAAAAAAA [XGTACX_site7668],9.36
5,ATATATATAATATGCGGTACACATTAATTAAATCAT [XGTACX_site5702],9.82
6,TTATTTCTCTTTTCAGTGCATTTTATAACAAAAAAA [GTGCAC_site9930],9.2
7,TATTTATTGTGATACTTATATTACTTAATGATTAAA [CACACA_negctrl_site676],9.41
8,TAATTATGCAGACACACACACACACCCAACTAAAAA [CACACA_site2569],10.4
9,CTATTTCATGGACACACACACACAAACAAACATATA [CACACA_site4696],11.1
10,ATATATTATATAAAGTGTACAAAAAAAATATATAAA [XGTACX_site8065],9.88
11,TTATTGCATTGTTTTTATAAAAAAAAAAAAAAAATT [XGTACX_negctrl_site104],9.48
12,ATATATATTTTATTCACACATAAGATTATAAAACAT [CACACA_site5369],9.53
13,TATGATATAATTATGTGTACACAATTTTTTTTTTTT [XGTACX_site1084],9.74
14,TGTGTTCAGTATTGCACACACACAACAAAATAAAAA [CACACA_site8017],10.3
15,ATTAATAAGAAATATACACACATGGATAAATACATA [CACACA_site1872],9.91
16,TTTCTTGCTACATGAAGTACACTTTCTATGACTCGT [XGTACX_site5583],9.55
17,TTATTATAAATGTTTTGTACGTACATCCGAAAATAA [XGTACX_site2175],9.48
18,TATAATCATATTAAGGGTACATATGTGTAAATATTT [XGTACX_site6018],9.75
19,CTTTAAAACCGGTACTGTACACATAGTATTATTATC [XGTACX_site2602],9.73
20,ATAATAATAATATAACCAAGGAAATATAATATTTGT [XGTACX_negctrl_site485],9.7
21,CGATACTTTAGGTGTACACAAATATACATGAATGAG [CACACA_site5189],9.79
22,AAAAAAAAGGAAATAACACACATGTATTTATTTATA [CACACA_site4966],9.73
23,AAATTTGCTTTTATTTTACACACTTGCTCCTGTTGT [CACACA_site8276],10.6

row,Sequence,gcPBM binding intensity (ln)
1,ATAATATTTTAATGCACACACACAAAAAAAAAAAAA [CACACA_site2891],10.1
2,AAACAATCTAAAAGTAGTACAATAAAAATATATATA [XGTACX_site5607],9.69
3,AAAAAAAAATTATTCACACATATATATATATATATA [CACACA_site5579],9.65
4,GAACCATAAGGAACGACACACAAAGATAAATAAATA [CACACA_site3472],9.87
5,AAAAATAAAAAAAGCACACACATATATATATATATA [CACACA_site1885],10.5
6,GTGTGAAACATAAACACACACAAAAAGAAAAAATAG [CACACA_site1227],10.1
7,TGATATTTACAAATATTAAGATCTTATATTTTTTTT [CACACA_negctrl_site617],9.53
8,AATATAAATATTAAAACACACATAAAAAGATTATTA [CACACA_site1764],9.76
9,TATATATATATATTACGTACATAGAACTTTATAAAA [XGTACX_site4485],9.58
10,AATATTTTATTTTGGGTGCAAAAGAATATTATTTCA,9.42
11,AGCACATATATATTATGTACATATAACTTCCCAGTG [XGTACX_site7095],9.66
12,GTATATATATATATATGTACTAATTAGTAGTTTACG [XGTACX_site6274],9.69
13,TATTACATAATACAAAGTACATATATTTTTTTATTT [XGTACX_site7061],9.62
14,ATATTTATACATAAATGTACTTTTATATATTTAATA [XGTACX_site3020],9.65
15,AATATTATAAATGATACACACTTAAAATACACGCAC [CACACA_site7305],9.98
16,TTGTGTAAAGGTATTATTGTATTATTCAAAATAAAA [XGTACX_negctrl_site167],9.47
17,AATATATAATATATATGTACTTATATATAAAAGATA [XGTACX_site7635],9.71
18,ATTTATTAATATCCCAGTACTCATGGGGAATAATGA [XGTACX_site4014],9.4
19,TGATAAATTAAAAATTGTACTATTATAATAATATAT [XGTACX_site6615],9.47
20,TTTATATAAATTTATTCACACAACTAATTTTTTAAA [CACACA_site4848],9.23
21,ACAATAAACATATATACACACACAAAAAAAAAAACA [CACACA_site8033],10.7
22,ATCAAATAGAGACACACACACCTAAACATAAAAGAA [CACACA_site7321],10.6
23,TGGAGGAACCTCATATGTACGTATAAATATATATTT [XGTACX_site5603],9.64

row,Sequence,gcPBM binding intensity (ln)
1,CATATATATTTGTTCACACACACACTAATAAAAAAA [CACACA_site8787],10.2
2,TTAAAGCACCCATGCACACACACAAAGGAAAAGAAA [CACACA_site233],10.2
3,TTATATGTATGGAGGTTTTTGTATATAGATATATAG [CACACA_negctrl_site177],9.68
4,CATCTTATATAATCATGTACATATAGAGACTTCTTT [XGTACX_site7685],9.62
5,TTTTTCTTACATGAGTGTACACACTTTTTTTCAGAA [XGTACX_site138],9.51
6,GGGGGAATTTACATGGGTACACATGTATTAAAAAAT [XGTACX_site4130],9.66
7,ACTATTAAAATGAATACACACAAATATAAAAATATA [CACACA_site4145],9.91
8,GGTAGGGATTATACCACACACACATACACATAAATA [CACACA_site3179],10.2
9,ACGCTACATAAATACGTGCACATCTTTTTGTGTATA [GTGCAC_site9675],9.72
10,AATATAAACAAACACACACACATATATATATATATT [CACACA_site5592],10.3
11,ATGTCATATAATAGTACACACATGAAAATATAAATA [CACACA_site3215],10.1
12,AAAAAAAAAAAAAATAGTACAATACCCAAATATAAC [XGTACX_site6684],9.82
13,ATAAAAAAAGGACACACACACATATATTTATTTATA [CACACA_site7438],10.5
14,ATTTTTCTTTTTAATACACACAAAAGTGATACAAAC [CACACA_site3923],9.73
15,TGTATTATATATACACAAATATTTATGTGTGTGTTT [XGTACX_negctrl_site475],10.1
16,TTTTTTTGTATTTGTTTATTTAATGATAAAATTAAA [CACACA_negctrl_site225],9.33
17,ATAGTCTTAATGACTACACACCTAACTATGCATGCA [CACACA_site5084],9.7
18,ATACAGTTGCATATGGTGCACGAATAATACACCTAT,9.64
19,AAAAAAAAAAAAAAAACACACAAATCATAAATAAAT [CACACA_site478],9.85
20,TGGTAGTATATCATAGAAATCATTGTATAACAAATA [XGTACX_negctrl_site569],9.55
21,ACTAAACTAATATGTACACACATATAACATTAATTT [CACACA_site7128],9.88
22,TATATATATATATATAGTACATATTTATATATGAAA [XGTACX_site8488],9.64
23,GAATTAAAATAATACGTACACACATGTATAATACAT [CACACA_site1004],9.93

row,Sequence,gcPBM binding intensity (ln)
1,TTTCGTTCATAAAAAAGTACATATGAGCAAAAGGTA [XGTACX_site8936],9.57
2,CACAATACTTTCATCACACATATATATATATATATA [CACACA_site4677],9.7
3,TTGTTCTATTTAAGTAGTACATACACACACATATAC [XGTACX_site8484],10.3
4,ACATATATATATTCTACACACTTATAATATAATACA [CACACA_site2461],9.8
5,AGGTTTCATTTAGCATGTACATATTATAAAAATTGT [XGTACX_site8448],9.61
6,TCTGTTAATATTTATACACACATATATATATATATA [CACACA_site1139],9.88
7,AAGATTACTTATATATGTACACATAATACAAATGTC [XGTACX_site520],9.66
8,AAAAAATTATACCTTTGTACATAAATAAAATATTAT [XGTACX_site418],9.51
9,ACCCATTGCTCACGTGCACACATAGAAAAATAATTC [CACACA_site4389],9.87
10,ATAACATAAGGAAATACACACATATATAAGTATATA [CACACA_site778],10.2
11,TATGTATATATTTACGCATGCTACTCTATTTTGAGA [TGCATGCA_site990],9.91
12,ATAGTATCTGGTAGCTGTACGAGTCGTAGAGTGTAG [XGTACX_site2030],9.81
13,TGGGAAGGGTGGGAAACTTTATCAAAAACTTATTAC [GTGCAC_negctrl_site16],9.77
14,TATGTATTTTTTAAGTGTACCTATATATATATATAT [XGTACX_site7934],9.88
15,AGAAAGGTGGTATTAAAAGAATAACCTATGAATAAA [GTGCAC_negctrl_site325],9.4
16,TATAATAATAATTATTGTACGATTAGGTTAATTCAT [XGTACX_site1984],9.54
17,TTTTTCATAAAAAAATAAAAAAAATTAACATAGAAA [XGTACX_negctrl_site11],9.38
18,ATAATATATACTATATGTACATATCTTTTCCTCTTT [XGTACX_site5553],10.1
19,TTTTAGAGTGGTATATATTAATTTTTAATAAAAAAA [CACACA_negctrl_site1652],9.11
20,AATAAAAGAAGACAGAGTACACAGGTTGTATTTTCC [XGTACX_site7208],9.83
